The results in this text go back to patent US4912133A, “BU-3862T antitumor antibiotic” (priority 1988, dated 1990).

The data set deals with B16 melanoma.
Where [1] appears, read: mouse, in vivo, ip, 2 mg/kg/day.
Where [2] appears, read: mouse, in vivo, ip, 4 mg/kg/day.
The mark [3] stands for this setting: mouse, in vivo, ip, 8 mg/kg/day.
The mark [4] stands for this setting: mouse, in vivo, ip, 1 mg/kg/day.

The structures appear in SMILES notation. Like-named read-outs stand apart in the source and are kept apart here.

With `C=C(C)CC(NC(=O)[C@H](CO)NC(=O)CCCCC(C)C)C(=O)C1(CO)CO1` (stereo partly drawn) [BU-3862T], the “Body wt. change on day 5” value (Table 6, 0.13 mg/kg/day ip, QD × 9) is reported as “+0.8 g”; the “Body wt. change on day 5” value (mouse, in vivo, ip, 0.63 mg/kg/day) is recorded as “+1.3 g”; the “Body wt. change on day 5” value under setting [1] is -0.5 g; the “Body wt. change on day 5” value under setting [2] is recorded as -1.3 g; the “Body wt. change on day 5” value under setting [3] is reported as -2.3 g.

As to `C=C(C)CC(NC(=O)[C@H](COC(C)=O)NC(=O)CCCCC(C)C)C(=O)C1(COC(C)=O)CO1` (stereo partly drawn) [Diacetyl-BU-3862T], the “Body wt. change on day 5” value reads like this: under setting [4], “+0.3 g”; under setting [1], “+1.0 g”; under setting [2], “+0.5 g”; under setting [3], -2.0 g.

Regarding `CC(C)CCCCC(=O)N[C@@H](CO)C(=O)NC(CC(C)C)C(=O)C1(CO)CO1` (stereo partly drawn) [Dihydro-BU-3862T], the “Body wt. change on day 5” value was “+0.5 g” under setting [4], “+0.5 g” under setting [1], -0.5 g under setting [2] and -1.0 g under setting [3].

For the molecule `CO[C@@]12[C@H](COC(N)=O)C3=C(C(=O)C(C)=C(N)C3=O)N1C[C@@H]1N[C@@H]12` [Mitomycin C, reference compound], the “Body wt. change on day 5” value is, setting by setting: (mouse, in vivo, ip, 0.25 mg/kg/day) “+0.3 g”; (mouse, in vivo, ip, 0.5 mg/kg/day) “+0.5 g”.
